Data from PMC6315623.
These are yes or no findings as the source states them, for the method shown. For part of these data: Binding seen in cells or lysates may run through a third protein. Some results given as binding are weak or reduced against the parent protein; the word gives no strength. Tags and fused reporters may be left off the sequences shown.

Key:
[1] = target: HAdV-A12 E1A N-terminal PXLXP motif, wildtype (residues 80-90), LexA DBD fusion (human adenovirus A12 (HAdV-A12)) (UniProt P03259); assay: two-hybrid
[2] = target: HAdV-A12 E1A CR2 (residues 80-125), LexA DBD fusion (human adenovirus A12 (HAdV-A12)) (UniProt P03259); assay: two-hybrid
[3] = target: HAdV-A12 E1A C-terminal PXLXP motif, wildtype (residues 95-105), LexA DBD fusion (human adenovirus A12 (HAdV-A12)) (UniProt P03259); assay: two-hybrid
[4] = target: HAdV-E4 E1A CR2 (residues 91-145), LexA DBD fusion (human adenovirus E4 (HAdV-E4)) (UniProt P10407); assay: two-hybrid
[5] = target: GFP-tagged full-length HAdV-A12 E1A (human adenovirus A12 (HAdV-A12)) (UniProt P03259); assay: co-IP
[6] = target: GFP-tagged full-length HAdV-E4 E1A (human adenovirus E4 (HAdV-E4)) (UniProt P10407); assay: co-IP

Row | Binder | binding [1] | binding [2] | binding [3] | binding [4] | binding [5] | binding [6]
1 | BS69 MYND domain (residues 427-602) fused to a B42 activation domain (domain or fragment, UniProt Q15326 427-602) MPQPIEKVSVSTQTKKLSASSPRMLHRSTQTTNDGVCQSMCHDKYTKIFNDFKDRMKSDHKRETERVVREALEKLRSEMEEEKRQAVNKAVANMQGEMDRKCKQVKEKCKEEFVEEIKKLATQHKQLISQTKKKQWCYNCEEEAMYHCCWNTSYCSIKCQQEHWHAEHKRTCRRKR | binds | binds | binds | no binding | – | –
2 | HA-tagged BS69 MYND domain (residues 427-602) (domain or fragment, UniProt Q15326 427-602) MPQPIEKVSVSTQTKKLSASSPRMLHRSTQTTNDGVCQSMCHDKYTKIFNDFKDRMKSDHKRETERVVREALEKLRSEMEEEKRQAVNKAVANMQGEMDRKCKQVKEKCKEEFVEEIKKLATQHKQLISQTKKKQWCYNCEEEAMYHCCWNTSYCSIKCQQEHWHAEHKRTCRRKR | – | – | – | – | binds | no binding
